Data from PMC11787673.
No constants are given. Whether binding was seen depends on the method and setting. In cells and extracts the contact can be indirect. Some results given as binding are weak or reduced against the parent protein; the word gives no strength. One block for each molecule: values may come before it.

Protein sequences, listed by entry. Tags and fused reporters are not part of them. Lines headed by an entry give the natural chain unless they say otherwise; changes in a name come on top. Residues count along the entry.
UniProt Q64261: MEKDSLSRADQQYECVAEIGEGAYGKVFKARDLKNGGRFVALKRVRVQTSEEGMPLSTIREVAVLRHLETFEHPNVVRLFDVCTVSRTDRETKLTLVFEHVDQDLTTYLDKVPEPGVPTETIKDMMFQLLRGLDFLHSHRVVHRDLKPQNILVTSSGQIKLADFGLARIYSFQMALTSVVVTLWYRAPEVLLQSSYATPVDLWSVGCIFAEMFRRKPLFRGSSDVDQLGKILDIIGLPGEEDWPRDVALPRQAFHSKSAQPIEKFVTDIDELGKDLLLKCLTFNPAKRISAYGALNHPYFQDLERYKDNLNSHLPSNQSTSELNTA
HA-C-terminally truncated Cdk6 (Cdk6 ΔC): residues 1-294 of Q64261
UniProt P46414: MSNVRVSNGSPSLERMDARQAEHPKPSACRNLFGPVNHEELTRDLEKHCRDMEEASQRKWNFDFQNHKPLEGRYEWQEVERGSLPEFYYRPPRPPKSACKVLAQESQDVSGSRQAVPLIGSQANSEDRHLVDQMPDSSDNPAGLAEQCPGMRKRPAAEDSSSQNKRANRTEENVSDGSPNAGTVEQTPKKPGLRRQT
UniProt Q60772: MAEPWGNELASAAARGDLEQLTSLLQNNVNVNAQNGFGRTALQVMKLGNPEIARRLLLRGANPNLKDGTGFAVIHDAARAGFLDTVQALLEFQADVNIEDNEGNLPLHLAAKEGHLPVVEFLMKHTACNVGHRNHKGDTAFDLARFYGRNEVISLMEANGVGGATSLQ

Legend:
[1] = biological target: HA-C-terminally truncated Cdk6 (Cdk6 ΔC) (mouse) (UniProt Q64261); test: co-IP; anti-HA magnetic beads on extracts of Cdk6, Cdk6 ΔC and Cdk6-/- p185 BCR-ABL+ cell lines; partners detected by immunoblot; Cdk6-/- cells as negative control
[2] = biological target: full length HA-tagged Cdk6 (mouse) (UniProt Q64261); test: as above
Cdk6 ΔC-F[1] (mouse) = Cdk6 ΔC-F[1] (mouse) (UniProt Q64261); test: split reporter; Renilla luciferase protein-fragment complementation assay (Rluc-PCA) in intact HEK293T cells, 48 h after transfection; bioluminescence (RLU) after benzyl-coelenterazine; also with co-expressed p16^INK4a-flag
Cdk6-F[1] (mouse) = Cdk6-F[1] (mouse) (UniProt Q64261); test: as above

- binding [1]: no binding
- binding [2]: binds
Molecule: p27^Kip1 (from UniProt P46414 1-197)

- binding [1]: no binding
- binding [2]: binds
Molecule: p18^INK4c (from UniProt Q60772 1-168)

- binding [1]: no binding
- binding [2]: binds
B1: cyclin D3 (protein, UniProt P30282 1-292)
chain: MELLCCEGTRHAPRAGPDPRLLGDQRVLQSLLRLEERYVPRASYFQCVQKEIKPHMRKMLAYWMLEVCEEQRCEEDVFPLAMNYLDRYLSCVPTRKAQLQLLGTVCLLLASKLRETTPLTIEKLCIYTDQAVAPWQLREWEVLVLGKLKWDLAAVIAHDFLALILHRLSLPSDRQALVKKHAQTFLALCATDYTFAMYPPSMIATGSIGAAVLGLGACSMSADELTELLAGITGTEVDCLRACQEQIEAALRESLREAAQTAPSPVPKAPRGSSSQGPSQTSTPTDVTAIHL

- binding [1]: no binding
- binding [2]: binds
B2: p19^INK4d (protein, UniProt Q60773 1-166)
chain: MLLEEVCVGDRLSGAAARGDVQEVRRLLHRELVHPDALNRFGKTALQVMMFGSPAVALELLKQGASPNVQDASGTSPVHDAARTGFLDTLKVLVEHGADVNALDSTGSLPIHLAIREGHSSVVSFLAPESDLHHRDASGLTPLELARQRGAQNLMDILQGHMMIPM

- binding (Cdk6 ΔC-F[1] (mouse)): no binding
- binding (Cdk6-F[1] (mouse)): binds
B3: p16^INK4a-F[2] (protein, UniProt P51480 1-168)
chain: MESAADRLARAAAQGRVHDVRALLEAGVSPNAPNSFGRTPIQVMMMGNVHVAALLLNYGADSNCEDPTTFSRPVHDAAREGFLDTLVVLHGSGARLDVRDAWGRLPLDLAQERGHQDIVRYLRSAGCSLCSAGWSLCTAGNVAQTDGHSFSSSTPRALELRGQSQEQS

- binding [1]: no binding
- binding [2]: binds
B4: p16^INK4a (protein, UniProt P51480 1-168)
chain: B3 chain
